Laboratory results as given in PubChem BioAssay (NCATS).
Inconclusive results, whose numbers are uncertain, are shown with a selection of clear calls. For part of these data: Potencies of inconclusive entries are left out as doubtful fits. The source made the active and inactive calls. Unless noted, calls come from the whole dose curve; as a rule, active = well fitted inhibition curve with a large enough effect; inconclusive = small, poorly fitted or top-dose-only effect; inactive = no such curve, though single readings can be large or run the other way.

System: not listed separately
Experiment: qHTS Assay for Identification of Small Molecule Antagonists for NFkB Signaling Pathway (AID 895; active = well fitted inhibition curve with a large enough effect in the signal ratio, with a control signal flat, not every such curve was filed as active; inconclusive = small, poorly fitted or top-dose-only effect, or effect the other way, or a change in a side signal; the % refers to the signal ratio; note: % is set by controls: 0 for no effect and ±100 for the full control effect)
Settings: NFkB beta-lactamase reporter cells, FRET ratio 460/530, stimulated with 10 pM TNF alpha; activity change, negative = inhibition: at 38.3 µM (top of the series)
Outline: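 NFkB-bla ME-180 cervical carcinoma cells with beta-lactamase reporter under NFkB response element; compounds added, then TNF alpha at 10 pM final (EC50), 5 h at 37 C. LiveBLAzer substrate 2 h, room temperature; emission 460/530 nm at 405 nm excitation.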
Tags give direction and shape of the fitted curve or compound fluorescence and quenching.

| SMILES | activity change, negative = inhibition | Potency |
| --- | --- | --- |
| C[C@H](O)[C@H](O)[C@@H]1CNc2nc(N)[nH]c(=O)c2N1 | inconclusive: -2.35% |  |
| CC(=O)[C@@H]1CC[C@@H]2[C@@H]3CC=C4C[C@H](OS(=O)(=O)O)CC[C@@]4(C)[C@H]3CC[C@]21C | inconclusive: 27.3% |  |
| COc1cc2nc(N3CCN(C(=O)OCc4ccccc4)[C@H](C(=O)NC(C)(C)C)C3)nc(N)c2cc1OC |  | inactive |

Target: Cytochrome P450 2C19 (Homo sapiens) (UniProt P33261)
Experiment: qHTS Assay for Inhibitors and Substrates of Cytochrome P450 2C19 (AID 899); note: potency is the fitted concentration of half-maximal effect; nearly all actives have a fitted effect of over 60% in size
Settings: recombinant CYP2C19, luciferin-H EGE luminescence; series mostly up to 11.4 µM
Outline: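 In 50mM KPO4, the reaction held 5nM enzyme and KM-level (10uM) Luciferin-H EGE; it ran 60 min at 37C after NADPH regeneration and a 10 min compound preincubation. Luminescence values were scaled to 57uM ketoconazole as complete inhibition.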

Sequence of UniProt P33261 (P33261 whole entry, looked up): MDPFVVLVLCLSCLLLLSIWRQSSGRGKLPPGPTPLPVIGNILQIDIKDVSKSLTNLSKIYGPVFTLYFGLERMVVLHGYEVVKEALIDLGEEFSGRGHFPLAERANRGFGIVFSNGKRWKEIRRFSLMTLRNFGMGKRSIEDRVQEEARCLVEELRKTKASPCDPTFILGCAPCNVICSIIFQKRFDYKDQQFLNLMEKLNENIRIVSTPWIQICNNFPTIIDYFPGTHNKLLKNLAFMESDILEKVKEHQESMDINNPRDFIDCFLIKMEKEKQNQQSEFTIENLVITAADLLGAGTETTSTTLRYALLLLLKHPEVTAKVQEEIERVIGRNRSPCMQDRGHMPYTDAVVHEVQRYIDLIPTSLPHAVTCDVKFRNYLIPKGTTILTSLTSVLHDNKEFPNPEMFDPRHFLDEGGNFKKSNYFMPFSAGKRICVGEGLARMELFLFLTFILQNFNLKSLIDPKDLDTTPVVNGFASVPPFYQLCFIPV

| SMILES | Potency |
| --- | --- |
| C[C@]12CC[C@@H]3C(=CCc4cc(O)ccc43)[C@@H]1CCC2=O | inconclusive [inhibitor, single point] |
| Cc1ccc(SCN2CCCCC2)cc1 (tested in a mixture with another compound) | inconclusive [inhibitor, partial curve, poor fit] |
| Cc1ncc(CSC(=N)N)n1Cc1ccccc1 | inconclusive [inhibitor, single point] |

System: not listed separately
Experiment: qHTS Assay for Identification of Small Molecule Agonists for Hypoxia Response Element Signaling Pathway (AID 914; active = well fitted activation curve with a large enough effect in the signal ratio, with a control signal flat, not every such curve was filed as active; inconclusive = small, poorly fitted or top-dose-only effect, or effect the other way, or a change in a side signal; the % refers to the signal ratio; note: potency is the fitted concentration of half-maximal effect; for activation: top concentration of the series differs between compounds; % of control where 0% means no effect)
Settings: ME-180 (cervical carcinoma) HRE-bla reporter, beta-lactamase ratio, CoCl2, 17 h; activation: stronger effect = higher value
Outline: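 HRE-bla ME-180 cells, overnight plating in Opti-MEM with 0.5% dialyzed FBS; cpd titration + EC50 CoCl2, 17 h, 37 degrees Celsius; CCF4 2.5 h RT; 460/530 nm ratio; AC50.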

| SMILES | Potency | activation |
| --- | --- | --- |
| O=C(O)CCc1c2ccc(=O)c(O)c-2oc2c(O)c(O)ccc12 | inconclusive [inhibitor, single point] |  |
| COCc1cc(C)nc(N)c1C#N |  | inactive: 1.6% |
| CC(C)(N)CO[C@H]1C[C@H]2CC[C@@]1(C)C2(C)C |  | inconclusive: 10.1% |
| Cc1c(C)n(C(=O)CSc2nccn2C)c2ccccc12 |  | inconclusive: -37.8% |
| O=C(O)c1ccccc1-c1ccccc1C(=O)Nc1ccc2c(c1)Cc1cc(F)ccc1-2 | inconclusive [inhibitor, single point] |  |
| O=c1c(-c2cccs2)nc2cnc(N3CCOCC3)nc2n1Cc1cccs1 | inconclusive [activator, full curve] |  |
| COc1cc2c(cc1OC)C1(CCCC1)C(N)=C2C#N | inconclusive [inhibitor, partial curve] |  |
| CC1(C)Cc2c(C#N)c(NCC3CCCO3)nc(-c3ccco3)c2CO1 (stereo not drawn) |  | inactive: 25.9% |
| COC(=O)c1ccc(C2/C(=C(/O)c3ccc(OC)cc3)C(=O)C(=O)N2Cc2ccco2)cc1 (stereo not drawn) | inconclusive [inhibitor, partial curve] |  |
| CCc1nc(SCc2cccnc2)c(C#N)cc1C | inconclusive [inhibitor, single point] |  |
| COc1ccc(Oc2ncc3nc(-c4cccs4)c(=O)n(-c4ccccc4)c3n2)cc1 | active: 2.51 µM |  |
| O=C(O)c1nnsc1-c1csnn1 |  | inconclusive: 2.95% |
| Fc1ccc(C2C3=C(Nc4ncnn42)c2ccccc2OC3c2ccncc2)cc1 (stereo not drawn) | inconclusive [inhibitor, partial curve] |  |
| CCOC(=O)c1[nH]c2cc3c(cc2c1NC(=O)CN1CCc2ccccc2C1)OCO3 | inconclusive [inhibitor, partial curve] |  |
| COc1ccc2c(c1OC)C(=O)N1c3ccccc3SC21 (stereo not drawn) |  | inconclusive: 16% |
| N#CCCn1c(=O)c(-c2cccs2)nc2cnc(Oc3ccccc3)nc21 | inconclusive [activator, single point] |  |
| CCN(CC)COC(=S)S |  | inconclusive: 10.4% |
| COc1cc(-c2nn3c(COc4ccccc4)nnc3s2)cc(OC)c1OC |  | inconclusive: -27% |
| C=C(C)CN1CCN(c2c(CCC#N)c(C)c(C#N)c3nc4ccccc4n23)CC1 |  | inconclusive: 37.7% |
| Cc1nn(-c2cccc(Cl)c2)c2c1C(c1ccncc1)C(C#N)=C(N)O2 (stereo not drawn) | inconclusive [inhibitor, single point] |  |
| COc1cc2nc(N3CCN(C(=O)OCc4ccccc4)[C@H](C(=O)NC(C)(C)C)C3)nc(N)c2cc1OC | inconclusive [inhibitor, full curve] |  |
| COc1ccc(C(=O)Cn2c(Br)nc3c2c(=O)n(C)c(=O)n3C)cc1OC |  | inactive: 8.03% |
| Oc1ccc(Br)cc1CNn1cnnc1 | inconclusive [inhibitor, single point] |  |
| CN1CCN(c2ncnc3c2[nH]c2ccc(F)cc23)CC1 |  | inconclusive: -31.6% |
| CCNc1ncc2nc(-c3ccc(Cl)cc3)c(=O)n(C[C@H]3CCCO3)c2n1 | inconclusive [activator, full curve] |  |
| Cn1c(NCc2cccnc2)nc2c1c(=O)n(Cc1ccccc1F)c(=O)n2C | inconclusive [inhibitor, full curve] |  |
| COc1ccc(Cc2ccc3[nH]c(=O)cc(C)c3c2)cc1S(=O)(=O)O | inconclusive [inhibitor, single point] |  |
